Assay results taken from article PMC7949046, “Human genetic variants disrupt RGS14 nuclear shuttling and regulation of LTP in hippocampal neurons” (The Journal of Biological Chemistry, 2020).
Numbering of substitutions follows the chain as printed. In names and notes the source's numbering stands. No constants are given. Whether binding was seen depends on the method and setting. For some of these results: In cells and extracts the contact can be indirect. Some binding calls cover weakened binding; strength is not graded here. For some of these results: Sequences can lack the tags named with a protein.

The chains behind the UniProt entries cited, without tags or fusion partners.
UniProt O14980: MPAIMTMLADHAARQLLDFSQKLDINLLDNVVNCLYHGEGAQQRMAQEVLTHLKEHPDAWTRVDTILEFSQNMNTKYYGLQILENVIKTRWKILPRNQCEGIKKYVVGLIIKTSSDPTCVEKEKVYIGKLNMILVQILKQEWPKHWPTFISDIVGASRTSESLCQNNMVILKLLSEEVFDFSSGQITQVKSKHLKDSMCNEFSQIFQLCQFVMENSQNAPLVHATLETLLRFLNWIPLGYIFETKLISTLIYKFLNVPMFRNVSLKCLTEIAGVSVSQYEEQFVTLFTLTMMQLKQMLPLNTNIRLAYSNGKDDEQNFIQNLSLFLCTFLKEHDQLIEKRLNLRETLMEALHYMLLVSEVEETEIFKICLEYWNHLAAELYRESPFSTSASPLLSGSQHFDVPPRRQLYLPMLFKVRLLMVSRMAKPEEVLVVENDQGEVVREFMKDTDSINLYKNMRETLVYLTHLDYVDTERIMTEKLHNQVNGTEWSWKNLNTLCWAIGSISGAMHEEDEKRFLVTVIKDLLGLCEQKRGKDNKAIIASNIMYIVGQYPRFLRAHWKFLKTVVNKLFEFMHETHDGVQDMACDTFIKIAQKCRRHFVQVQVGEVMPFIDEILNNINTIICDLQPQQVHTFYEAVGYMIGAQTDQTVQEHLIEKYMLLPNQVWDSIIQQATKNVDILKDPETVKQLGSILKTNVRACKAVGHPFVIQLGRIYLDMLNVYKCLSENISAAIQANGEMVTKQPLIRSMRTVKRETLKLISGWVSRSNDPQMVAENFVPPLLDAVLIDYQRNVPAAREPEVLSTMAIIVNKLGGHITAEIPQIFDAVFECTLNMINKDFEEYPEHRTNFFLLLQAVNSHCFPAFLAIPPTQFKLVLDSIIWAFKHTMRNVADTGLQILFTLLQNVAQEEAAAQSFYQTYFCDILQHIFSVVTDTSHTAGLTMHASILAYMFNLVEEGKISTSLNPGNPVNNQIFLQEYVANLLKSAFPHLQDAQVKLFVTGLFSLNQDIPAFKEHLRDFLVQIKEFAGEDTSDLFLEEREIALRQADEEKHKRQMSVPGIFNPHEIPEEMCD
UniProt P10824: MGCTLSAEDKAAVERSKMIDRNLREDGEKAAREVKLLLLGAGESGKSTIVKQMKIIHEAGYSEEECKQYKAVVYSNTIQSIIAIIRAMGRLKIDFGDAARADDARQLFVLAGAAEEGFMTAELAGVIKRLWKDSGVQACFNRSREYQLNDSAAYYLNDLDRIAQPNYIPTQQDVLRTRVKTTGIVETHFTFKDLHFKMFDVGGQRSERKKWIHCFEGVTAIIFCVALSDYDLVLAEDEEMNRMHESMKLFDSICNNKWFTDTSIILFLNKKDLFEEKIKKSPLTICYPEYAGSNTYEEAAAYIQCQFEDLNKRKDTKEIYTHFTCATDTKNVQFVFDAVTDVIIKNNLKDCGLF

B1: RGS14 NESm (L503A/L504A) coexpressed with Flag-XPO1 in HEK293 cells (protein, UniProt O08773 1-544)
chain: MPGKPKHLGVPNGRMVLAVSDGELTSTSGSQAQGEGRGSSLSIHSLPSGPSSPFSTDEQPVASWAQSFERLLQDPRGLAYFTEFLKKEFSAENVTFWQACERFQQIPASDTKQLAQEAHNIYHEFLSSQALSPVNIDRQAWLSEEVLAQPRPDMFRAQQLQIFNLMKFDSYARFVKSPLYQECLLAEAEGRPLREPGSSHLGSPDTARKKPKLKPGKSLPLGVEELGQLPLAEGRPLRKSFRREMPGGAVNSALRRESQGSLNSSASLDLGFLAFVSSKSESHRKSLGSGEGESESRPGKYCCVYLPDGTASLALARPGLTIRDMLAGICEKRGLSLPDIKVYLVGKEQKALVLDQDCTVLADQEVRLENRITFQLELVGLERVVRISAKPTKRLQEALQPILAKHGLSLDQVVLHRPGEKQLVDLENLVSSVASQTLVLDTLPDAKTREASSIPPCRSQGCLPRTQTKDSHLPPLSSSLSVEDASGSTGKRQTCDIEGLVEAANRVQSSGAHDQRGLLRKEDLVLPEFLQLPSQRPGSQEAPP
B2: RGS14 WT coexpressed with Flag-XPO1 in HEK293 cells (protein, UniProt O08773 1-544)
chain: B1 chain with A503L, A504L
B3: RGS14-Luc, wild type (rat RGS14 fused to Renilla luciferase) (protein, UniProt O08773 1-544)
chain: B1 chain with A503L, A504L
B4: RGS14-Luc RQ/NLS (R506Q with R208A/K209A/K210A) (protein, UniProt O08773 1-544)
chain: B1 chain with R208A, K209A, K210A, A503L, A504L, R506Q
B5: RGS14-Luc R506Q (human variant R507Q placed in rat RGS14) (protein, UniProt O08773 1-544)
chain: B1 chain with A503L, A504L, R506Q
B6: RGS14-Luc LR/NLS (L504R with R208A/K209A/K210A) (protein, UniProt O08773 1-544)
chain: B1 chain with R208A, K209A, K210A, A503L, A504R
B7: RGS14-Luc Q515A/R516A (GPRm) (protein, UniProt O08773 1-544)
chain: B1 chain with A503L, A504L, Q515A, R516A
B8: recombinant RGS14 NES (L503A/L504A), purified from E. coli (protein, UniProt O08773 1-544)
chain: B1 chain
B9: recombinant RGS14 RQ (R506Q), purified from E. coli (protein, UniProt O08773 1-544)
chain: B1 chain with A503L, A504L, R506Q
B10: recombinant RGS14 LR (L504R), purified from E. coli (protein, UniProt O08773 1-544)
chain: B1 chain with A503L, A504R

These binders were tested against Flag-XPO1 (Flag-hCRM1) (human) (UniProt O14980) (assay: co-IP; Flag-XPO1 and RGS14 WT or NES transfected into HEK cells; Flag immunoprecipitated (Flag affinity gel); RGS14 and XPO1 measured by immunoblot).

| binding | Binder |
| --- | --- |
| no binding | B1 |
| binds | B2 |

The binders below were run against Gαi1-YFP (UniProt P10824) (assay: FRET or BRET; live HEK293 cells transiently transfected (40 h) with RGS14-Luc (donor) and Gαi1-YFP (acceptor); net BRET against the acceptor/donor ratio, or static net BRET; Tyrode's solution pH 7.4, 5 μM coelenterazine H).

| binding | Binder |
| --- | --- |
| binds | B3 |
| binds | B4 |
| binds | B5 |
| binds | B6 |
| no binding | B7 |

These binders were tested against T1, purified XPO1-GST (GST-CRM1, Exportin 1) (human, UniProt O14980 1-1071) (assay: pull-down; purified RGS14 mixed 2 h with purified XPO1-GST and His-Ran Q69L-GTP; His-Ran captured on Ni-NTA; Coomassie and immunoblot; both purified).
T1 construct: Results and legend name the protein of the pull-down XPO1-GST / GST-XPO1, but the methods say that CRM1/XPO1 was cleaved from the beads with TEV protease; also called GST-XPO1; CRM1/XPO1; source: E. coli BL21, purified (glutathione Sepharose 4B)

| binding | Binder |
| --- | --- |
| no binding | B8 |
| no binding | B9 |
| no binding | B10 |
